Structures are written as SMILES. Some results are limits rather than exact numbers.

Chain of human CB2 receptor (hCB2) (P34972 whole entry): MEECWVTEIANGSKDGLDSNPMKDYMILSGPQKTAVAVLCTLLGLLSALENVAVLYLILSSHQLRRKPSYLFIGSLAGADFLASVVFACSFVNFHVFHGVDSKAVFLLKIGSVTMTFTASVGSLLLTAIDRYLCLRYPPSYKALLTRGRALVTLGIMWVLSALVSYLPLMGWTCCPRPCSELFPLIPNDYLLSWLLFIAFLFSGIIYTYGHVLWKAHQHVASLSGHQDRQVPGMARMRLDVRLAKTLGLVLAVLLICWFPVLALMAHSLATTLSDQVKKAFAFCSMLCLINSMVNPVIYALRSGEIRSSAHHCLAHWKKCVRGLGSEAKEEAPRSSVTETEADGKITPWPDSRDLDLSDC

The first experiment addresses human CB2 receptor (hCB2) (Homo sapiens, UniProt P34972). In words: cell-based.
Settings: not given
Type of experiment: cell-based.
`CC(C)(C)[C@@H](CO)NC(=O)c1nc(-c2ccccc2)n2c1CNCC2` [Compound 22, (S)-N-(1-hydroxy-3,3-dimethylbutan-2-yl)-3-phenyl-5,6,7,8-tetrahydroimidazo[1,5-a]pyrazine-1-carboxamide] showed a 50% effective concentration (EC50) of over 10000 nM.

Regarding `CC(C)(C)[C@@H](CO)NC(=O)c1nc(-c2ccccc2)n2c1CN(S(=O)(=O)c1ccccc1)CC2` [Compound 102, (S)-N-(1-hydroxy-3,3-dimethylbutan-2-yl)-3-phenyl-7-(phenylsulfonyl)-5,6,7,8-tetrahydroimidazo[1,5-a]pyrazine-1-carboxamide], the concentration for a half-maximal effect (EC50) was over 10000 nM.

Compound `CNC(=O)[C@@H](NC(=O)c1nc(-c2ccccc2)n2c1CN(S(=O)(=O)c1ccc(C#N)cc1)CC2)C(C)(C)C` [Compound 108, (S)-7-(4-cyanophenylsulfonyl)-N-(3,3-dimethyl-1-(methylamino)-1-oxobutan-2-yl)-3-phenyl-5,6,7,8-tetrahydroimidazo[1,5-a]pyrazine-1-carboxamide] registered a concentration giving a half-maximal response (EC50) of over 10000 nM. Same read-out and setting: under `CNC(=O)[C@@H](NC(=O)c1nc(-c2ccc(NS(C)(=O)=O)cc2)n2c1CN(C)CCC2)C(C)(C)C` [Compound 420, (S)-N-(3,3-dimethyl-1-(methylamino)-1-oxobutan-2-yl)-8-methyl-3-(4-(methylsulfonamido)phenyl)-6,7,8,9-tetrahydro-5H-imidazo[1,5-a][1,4]diazepine-1-carboxamide] stands over 10000 nM. `CNC(=O)[C@@H](NC(=O)c1nc(-c2ccccc2C(F)(F)F)n2c1CN(C)CC2)C(C)(C)C` [Compound 255, (S)-N-(3,3-dimethyl-1-(methylamino)-1-oxobutan-2-yl)-7-methyl-3-(2-(trifluoromethyl)phenyl)-5,6,7,8-tetrahydroimidazo[1,5-a]pyrazine-1-carboxamide] came in with an EC50 of over 10000 nM. The same measure, in the same setting: under `CC12CCC(C1)C(C)(C)C2NC(=O)c1nc(-c2ccccc2)n2c1CN(C(=O)c1ccccc1)CC2` (stereo not drawn) [Compound 120, 7-benzoyl-3-phenyl-N-(1,3,3-trimethylbicyclo[2.2.1]heptan-2-yl)-5,6,7,8-tetrahydroimidazo[1,5-a]pyrazine-1-carboxamide] stands over 10000 nM.

As for `C[C@@H](NC(=O)c1nc(-c2ccccc2)n2c1CN(C(=O)C1CCOC1)CC2)C1CCCCC1` (stereo partly drawn) [Compound 139, N-((R)-1-cyclohexylethyl)-3-phenyl-7-(tetrahydrofuran-3-carbonyl)-5,6,7,8-tetrahydroimidazo[1,5-a]pyrazine-1-carboxamide], the concentration giving a half-maximal response (EC50) was over 10000 nM. Still for that read-out and setting: under `CC(C)CN1CCn2c(-c3ccccc3)nc(C(=O)NCC(C)(C)C)c2C1` [Compound 58, 7-isobutyl-N-neopentyl-3-phenyl-5,6,7,8-tetrahydroimidazo[1,5-a]pyrazine-1-carboxamide] stands over 10000 nM.

Staying with this experiment, now noted: agonist or inverse agonist at hCB2.
For `CNC(=O)[C@H](CC(C)C)NC(=O)c1nc(-c2ccc(F)c(F)c2)n2c1CN(C)CCC2` [Compound 535, (S)-3-(3,4-difluorophenyl)-8-methyl-N-(4-methyl-1-(methylamino)-1-oxopentan-2-yl)-6,7,8,9-tetrahydro-5H-imidazo[1,5-a][1,4]diazepine-1-carboxamide], the “+/− HCB2” value was “+”.

For `CNC(=O)[C@@H](NC(=O)c1nc(-c2ccc(F)c(Cl)c2)n2c1CN(C)CCC2)C(C)(C)C` [Compound 372, (S)-3-(3-chloro-4-fluorophenyl)-N-(3,3-dimethyl-1-(methylamino)-1-oxobutan-2-yl)-8-methyl-6,7,8,9-tetrahydro-5H-imidazo[1,5-a][1,4]diazepine-1-carboxamide], the “+/− HCB2” value is listed as “+”. Still for that read-out and setting: the entry for `C[C@H](NC(=O)c1nc(-c2ccccc2)n2c1CNCC2)c1ccccc1` [Compound 40, (S)-3-phenyl-N-(1-phenylethyl)-5,6,7,8-tetrahydroimidazo[1,5-a]pyrazine-1-carboxamide] is “+”; for `CCN1CCn2c(-c3ccc(Cl)cc3)nc(C(=O)N[C@H](CO)C(C)(C)C)c2C1` [Compound 161, (S)-3-(4-chlorophenyl)-7-ethyl-N-(1-hydroxy-3,3-dimethylbutan-2-yl)-5,6,7,8-tetrahydroimidazo[1,5-a]pyrazine-1-carboxamide] it is “+”; for `CNC(=O)[C@@H](NC(=O)c1nc(-c2ccccc2)n2c1CN(S(C)(=O)=O)CC2)C(C)(C)C` [Compound 92, (S)-N-(3,3-dimethyl-1-(methylamino)-1-oxobutan-2-yl)-7-(methylsulfonyl)-3-phenyl-5,6,7,8-tetrahydroimidazo[1,5-a]pyrazine-1-carboxamide] it is “+”.

`CNC(=O)[C@@H](NC(=O)c1nc(C2CCC(C)CC2)n2c1CN(C)CCC2)C(C)(C)C` (stereo partly drawn) [Compound 499, (S)-N-(3,3-dimethyl-1-(methylamino)-1-oxobutan-2-yl)-8-methyl-3-(4-methylcyclohexyl)-6,7,8,9-tetrahydro-5H-imidazo[1,5-a][1,4]diazepine-1-carboxamide]: the “+/− HCB2” value was “+”. Take `CNC(=O)[C@@H](NC(=O)c1nc(-c2ccccc2)n2c1CN(C1CC1)CC2)C(C)(C)C` [Compound 197, (S)-7-cyclopropyl-N-(3,3-dimethyl-1-(methylamino)-1-oxobutan-2-yl)-3-phenyl-5,6,7,8-tetrahydroimidazo[1,5-a]pyrazine-1-carboxamide]: the “+/− HCB2” value was “+”. As for `C=Cc1nc(C(=O)N[C@H](C(=O)NC)C(C)(C)C)c2n1CCN(C)C2` [Compound 266, (S)-N-(3,3-dimethyl-1-(methylamino)-1-oxobutan-2-yl)-7-methyl-3-vinyl-5,6,7,8-tetrahydroimidazo[1,5-a]pyrazine-1-carboxamide], the “+/− HCB2” value was “+”. `CC12CCC(C1)C(C)(C)C2NC(=O)c1nc(-c2ccccc2)n2c1CN(C(=O)C1CC1)CC2` (stereo not drawn) [Compound 119, 7-(cyclopropanecarbonyl)-3-phenyl-N-(1,3,3-trimethyl-bicyclo [2.2.1]heptan-2-yl)-5,6,7,8-tetrahydroimidazo[1,5-a]pyrazine-1-carboxamide]: the “+/− HCB2” value was “+”. Regarding `CNC(=O)[C@@H](NC(=O)c1nc(-c2cccc3cccnc23)n2c1CN(C)CCC2)C(C)(C)C` [Compound 444], the “+/− HCB2” value was “+”. Consider `CNC(=O)[C@@H](NC(=O)c1nc(C2=CCCCC2)n2c1CN(C)CC2)C(C)(C)C` [Compound 256], for which the “+/− HCB2” value is given as “+”. Same read-out and setting: the entry for `CNC(=O)[C@@H](NC(=O)c1nc(CC(C)C)n2c1CN(C)CCC2)C(C)(C)C` [Compound 486, (S)-N-(3,3-dimethyl-1-(methylamino)-1-oxobutan-2-yl)-3-isobutyl-8-methyl-6,7,8,9-tetrahydro-5H-imidazo[1,5-a][1,4]diazepine-1-carboxamide] is “+”. On the same count and under the same terms, under `CNC(=O)[C@@H](NC(=O)c1nc(-c2cccc(C#N)c2)n2c1CN(C)CC2)C(C)(C)C` [Compound 260, (S)-3-(3-cyanophenyl)-N-(3,3-dimethyl-1-(methylamino)-1-oxobutan-2-yl)-7-methyl-5,6,7,8-tetrahydroimidazo[1,5-a]pyrazine-1-carboxamide] stands “+”; under `CNC(=O)[C@@H](NC(=O)c1nc(-c2cn[nH]c2)n2c1CN(C)CCC2)C(C)(C)C` [Compound 432, (S)-N-(3,3-dimethyl-1-(methylamino)-1-oxobutan-2-yl)-8-methyl-3-(1H-pyrazol-4-yl)-6,7,8,9-tetrahydro-5H-imidazo[1,5-a][1,4]diazepine-1-carboxamide], “+”. The same measure, in the same setting: under `CNC(=O)[C@@H](NC(=O)c1nc(-c2cc(F)ccc2F)n2c1CN(C)CCC2)C(C)(C)C` [Compound 359, (S)-3-(2,5-difluorophenyl)-N-(3,3-dimethyl-1-(methylamino)-1-oxobutan-2-yl)-8-methyl-6,7,8,9-tetrahydro-5H-imidazo[1,5-a][1,4]diazepine-1-carboxamide] stands “+”.

With `CN1CCCn2c(-c3cc(F)c(F)cc3F)nc(C(=O)N[C@H](C(N)=O)C(C)(C)C)c2C1` [Compound 579, (S)-N-(1-amino-3,3-dimethyl-1-oxobutan-2-yl)-8-methyl-3-(2,4,5-trifluorophenyl)-6,7,8,9-tetrahydro-5H-imidazo[1,5-a][1,4]diazepine-1-carboxamide], the “+/− HCB2” value is recorded as “+”. Same read-out and setting: the entry for `CNC(=O)[C@@H](NC(=O)c1nc(C2CCCCC2)n2c1CN(C)CCC2)C(C)(C)C` [Compound 487, (S)-3-cyclohexyl-N-(3,3-dimethyl-1-(methylamino)-1-oxobutan-2-yl)-8-methyl-6,7,8,9-tetrahydro-5H-imidazo[1,5-a][1,4]diazepine-1-carboxamide] is “+”; for `CNC(=O)[C@@H](NC(=O)c1nc(-c2ccccc2)n2c1CN(C)CCC2)C(C)(C)O` [Compound 607, (S)-N-(3-hydroxy-3-methyl-1-(methylamino)-1-oxobutan-2-yl)-8-methyl-3-phenyl-6,7,8,9-tetrahydro-5H-imidazo[1,5-a][1,4]diazepine-1-carboxamide] it is “+”. Consider `CC(C)CN1CCn2c(-c3ccccc3)nc(C(=O)N[C@H](C)C3CCCCC3)c2C1` [Compound 163, (R)-N-(1-cyclohexylethyl)-7-isobutyl-3-phenyl-5,6,7,8-tetrahydroimidazo[1,5-a]pyrazine-1-carboxamide], for which the “+/− HCB2” value was “+”. Turning to `C[C@@H](NC(=O)c1nc(-c2ccccc2)n2c1CN(C)CC2)C(C)(C)C` [Compound 50, (R)-N-(3,3-dimethylbutan-2-yl)-7-methyl-3-phenyl-5,6,7,8-tetrahydroimidazo[1,5-a]pyrazine-1-carboxamide], the “+/− HCB2” value is “+”. The same measure, in the same setting: the entry for `CNC(=O)[C@@H](NC(=O)c1nc(-c2c(F)cccc2F)n2c1CN(C)CCC2)C(C)(C)C` [Compound 601, (S)-3-(2,6-difluorophenyl)-N-(3,3-dimethyl-1-(methylamino)-1-oxobutan-2-yl)-8-methyl-6,7,8,9-tetrahydro-5H-imidazo[1,5-a][1,4]diazepine-1-carboxamide] is “+”.

The same experiment, now with this note: groups >100 nM-10 μM and >10 μM; cAMP, CHO-K1 hCB2; read-out: EC50 HCB2.
Turning to `CC(C)(C)C(=O)N1CCn2c(-c3ccccc3)nc(C(=O)NC3CCCCC3)c2C1` [Compound 137, N-cyclohexyl-3-phenyl-7-pivaloyl-5,6,7,8-tetrahydroimidazo[1,5-a]pyrazine-1-carboxamide], the EC50 is over 10000 nM.

Values taken from patent US7517874B2 (priority 2007, dated 2009).
